Assay results from the RNAGym collection of RNA variant scans (doi:10.1073/pnas.2313332121).
Variants at the floor of the assay are shown more often than the library holds them.

B1: TPR 5TU (parent)
chain: GGAUCUUCUCGAUCUAACAAAAAAGACAAAUCUGCCACAAAGCUUGAGAGCAUCUUCGGAUGCAGAGGCGGCAGCCUUCGGUGGCGCGAUAGCGCCAACGUUCUCAACUAUGACACGCAAAACGCGUGCUCCGUUGAAUGGAGUUUAUCAUG

Variants of: B1
Experiment: polymerase ribozyme fitness, log enrichment relative to wild type (log ratio); higher = more active; in vitro selection for triplet polymerase activity
Outline: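 For each subunit of a heterodimeric triplet polymerase ribozyme, a mutant library was built by PCR and transcribed, then taken through a single in vitro selection round in triplicate. Selection involved annealing to a biotinylated primer, the partner subunit and triplets, incubation frozen at −7 °C, gel excision of extended constructs, capture on streptavidin beads and RT-PCR. Genotypes were retained after Illumina sequencing of inputs and outputs only with ≥10 input reads and ≥1 read in each output. Fitness is defined as the logarithm of a genotype's enrichment relative to wild-type enrichment, using inverse-variance-weighted averages across replicates, with the logarithm taken to base 2.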

Polymerase ribozyme fitness (log ratio), -3.76:
A3C C85U G136C

Polymerase ribozyme fitness (log ratio), -1.89:
A3C C5U G62C

Polymerase ribozyme fitness (log ratio), ≤ -4.2:
A3C A12U G42A G50A C76U G84U G92A A107C C116G
A3C A16G A21U C43A A60G C93G C125A U139A A142G
A3C A16G A22U C27A U53A G59A G92U
A3C A16G C57U G88A C95A A97C U104G G143A
A3C A17C A19U G25C C93U A115G A120U
A3C A17U C36U C38U G86C A106C A120G G126U
A3C A19G U61A U77G C85U C125A
A3C A19U U55C U56G C85G C108A C125A
A3C A20G A22U C36G A60U C87U G140A
A3C A21G A26C A39G A40G U53G C57G G67C C72U C87U U134A
A3C A22C A23U G42U A64G C87A
A3C A22C C32G C95U C103U A120C A121C U134C
A3C A22U A37G C54G C57U C85U G88C G117C C129U
A3C A23C C38A G84A
A3C A23C G74A C85A C103U U130A
A3C A24C G50U C75U U90G C96U G133U U139A
A3C A26C U101A U109G
A3C A26G A30C U56A G58A C132U U134G
A3C A26G G48C U111C U139A U146C
A3C A28U U31A A49C C57U U135C U139C
A3C A30U C95G U127G U135C
A3C A40G A52G G86U C108G C132U
A3C A40U U56A A60G C96G G140U
A3C A41G U44A C51U C87U A106U A107G
A3C A60U C87U C114G A121C
A3C C5G C36A U61C C75G C87U C118U
A3C C5U A26U U45A A49C U55C G62U C93A C96U
A3C C8G U9G G59A C87A G92C G117C G133U
A3C C10G A16G C57A G86C A91C G128C G141C
A3C C10G G59U G80A C85A
A3C C10G G62U G68C C87U A107C C123U G128A A137C U139C
A3C C10U A22C A26U C38G G74U C87U G92A C129A U130C
A3C C14U A28C G50C G59U C87U A98U G133U A147U
A3C C14U A52U U56A C87A A120U G141C
A3C C18G C93A U130A
A3C C18U C85A A106C G140C
A3C C32U C43U U44A U55G G81A C87A
A3C C35G A52U U56A G83U C96U
A3C C38U U55G C85G G92U
A3C C54G C76A
A3C C57G G65A G80A A89G G94C C99G G143U
A3C C79U C93U C95U
A3C C87G A98U C131A
A3C C93A C95G G140A
A3C G11C G48A A60G A73U C76U G84U C116U A122U U127G
A3C G34C G48C A106U A138G A150G
A3C G48A C54U C57A C76U A98G C99G C131G A138C
A3C G68U C93A
A3C G88A U151C
A3C U4A A30U G50C G94A A120G U144G
A3C U4A U15G C18U U56A C63U G92A C99U C118G A122C U148A
A3C U4G A16G U33G C43U G92U A106G
A3C U4G C103A U139A A142U
A3C U6C C32U A49C A147C U148A
A3C U9C C35A C76A G80C G86U G124U
A3C U9C C35G A52G U53A C75U A91U C114A
A3C U13A U55A A89C C108G C118U
A3C U13G A20U U53A A73G C93A C125A A138G U139A G140C
A3C U15G A24G G117A U151A
A3C U31G U56G C93G C96G G133C
A3C U33G A47U A49G C75A C76U A91U C93G A98U C114A G136C
A3C U61A G84A G92A A120C
A3C U77A G80C U90G C105U U111C
A3C U78C G83U G86A A121C
A3G A12C C76G C93A C96A G136C
A3G A12G A16G A22G A29C U55G U61G C75U G92U U130G U151A
A3G A12G A17G C54U C76A G86A C105G C108A A113U C149A
A3G A16C A26C U45A G59C G86C U130G U145G
A3G A16C A52G G68A A73U C85A U148C G152U
A3G A16U C18U U45G U55A G83U C95A C96G U104C U151A
A3G A17C A49C C51U C76A G81A G92A A113C C118G G140C G141U
A3G A17G U55C G92A U148G
A3G A17U A26C G50A U55C C75U C95A G141U
A3G A17U A28G C35A G88A A121G U148G
A3G A19G A26G G58C G70C C76G U78C C108U A119U U145G
A3G A19G C27G G48C
A3G A20C A49U C54U G92A

Polymerase ribozyme fitness (log ratio), 0.471:
A3C G141U

Polymerase ribozyme fitness (log ratio), -2.9:
A3C C14G C27U C85U U144G

Polymerase ribozyme fitness (log ratio), -1.52:
A3C A12U G58C C118U

Polymerase ribozyme fitness (log ratio), -0.403:
A3G A17U A47U U55G
